The list shows a part of the results.

The test system of the assay is PF3D7_0420300 AP2 domain 1 (GST-tagged). In words: gcPBM binding intensity (ln(normalized median fluorescence intensity)); higher = stronger DNA binding. In a few lines:
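Binding intensity is the highest Masliner-normalised natural-log median intensity over replicate spots in either probe orientation. To obtain it, GST-tagged P. falciparum DNA-binding domains made in E. coli were incubated for 1 h on an Agilent 4 × 180k array of primer-extended double-stranded 36-bp intergenic genomic probes plus negative controls. Detection used Alexa488 anti-GST antibody with scanning at 488 nm.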
“TATAATATTCCTTTTTAACACACATATGAACAAATA [CACACA_site7932]”: the “gcPBM binding intensity (ln)” value was found to be 9.3.
The value for “ATAAATAAATAAATACGTACATATATATATATATAT [XGTACX_site8838]” was 9.3; that for “ATACATATATTTTTATGTACATATATTTTTTTTGTA [XGTACX_site4546]” was 9.26.
With “TTGATATCTTTTTTTTGTACATATATTTATAAGTAA [XGTACX_site3538]”, the “gcPBM binding intensity (ln)” value was 9.19.
For “AAAATATAAGCCACTACACACATATATAAATGTATA [CACACA_site2639]”, the “gcPBM binding intensity (ln)” value amounted to 9.82.
For “TTTTAGAGTGATATATATTAACTTTTAATAAAAAAA [CACACA_negctrl_site611]”, the “gcPBM binding intensity (ln)” value is 8.72.
The value for “TTTTTTTAAATTATATGTACATAATTTTAATTTTAT [XGTACX_site5086]” was 9.15; that for “GTTATACACATATATACACACATATGTAGATATATA [CACACA_site7529]” was 9.58.
The value for “ATAAAATAAAAAAGTAGTACACACTTCACGATATTT [XGTACX_site8289]” was 9.59.
Take “AATAAATAAACAAATTAACACACAGAATTTTTTTTT [CACACA_site8485]”: the “gcPBM binding intensity (ln)” value came out at 9.59.
For “ATTATGTTATATATATGTACATATATAATGTTCATA [XGTACX_site6184]”, the “gcPBM binding intensity (ln)” value stood at 9.24.
On to “ATAATTATAAAATAAACACACATATATATTTATATG [CACACA_site440]”, for which the “gcPBM binding intensity (ln)” value came out at 9.44.
For “ATAATGATTATAATATGTACATAAATATATATATTA [XGTACX_site5029]”, the “gcPBM binding intensity (ln)” value was determined as 9.19.
With “AAACAATACATATATTGTACATATATTATATTATAT [XGTACX_site8136]”, the “gcPBM binding intensity (ln)” value was 9.31.
In the case of “AATTTGAAATAAAGTAGTACAGTATATAAAAATATA [XGTACX_site128]”, the “gcPBM binding intensity (ln)” value stood at 9.37.
As for “TTAGAAATTCATTTTACACACAATTCAAAAGAATGT [CACACA_site2104]”, the “gcPBM binding intensity (ln)” value amounted to 9.25.
Take “CGGATCTATAAGTGTACACAATCTAGCGAAAAGTTT [CACACA_site4932]”: the “gcPBM binding intensity (ln)” value turned out to be 9.2.
With “AAAAAATCAAAACACACACACACACCCAAAAAAAAA [CACACA_site1444]”, the “gcPBM binding intensity (ln)” value was 10.1.
For “AATAAACAAATATGTACACACATATACCTATAAATA [CACACA_site7358]”, the “gcPBM binding intensity (ln)” value stood at 9.75.
As for “ATATTAGATTAATTTACACACAGAAAATGAGATTTT [CACACA_site541]”, the “gcPBM binding intensity (ln)” value was 9.44.
As for “CCAACATATATTATCACACACATATATATATATATA [CACACA_site2016]”, the “gcPBM binding intensity (ln)” value came to 9.58.
The value for “TAGAGTATATATAAATGTACATATTTTATGCTAATT [XGTACX_site7821]” was 9.21; that for “AAAAAATTAAATAATTACAAAAAAATAAAATAAAAA [GTGCAC_negctrl_site638]” was 9.35; that for “AAAAATAATGCACATATATATAATATGTATATGTAT [CACACA_negctrl_site443]” was 9.37.
Consider “TTATTGTAAATATATGCATGTGCAAAATGAAAAAAA [TGCATGCA_site399]”, for which the “gcPBM binding intensity (ln)” value is 9.24.
Turning to “TTTTAAACAAGACACACACACATATATATATATATA [CACACA_site925]”, the “gcPBM binding intensity (ln)” value was found to be 9.62.
“ATGTTTACATATTAGGGTACATAATAAATTGCATAT [XGTACX_site6712]”: the “gcPBM binding intensity (ln)” value came out at 9.25.
“CATGTATTTTATATTACACACTAATATTATATATAT [CACACA_site1508]”: the “gcPBM binding intensity (ln)” value was found to be 9.37.
Regarding “GAATGTATAAAATGAACACACGCCAAATTAAATGAA [CACACA_site3044]”, the “gcPBM binding intensity (ln)” value was found to be 9.45.
Consider “ACATAAGAACATATTTGTACGTATATAAATTAAATA [XGTACX_site6127]”, for which the “gcPBM binding intensity (ln)” value was determined as 9.3.
For the sequence “ACAACAAAAATAAGCACACACAAATATACATACATA [CACACA_site7664]”, the “gcPBM binding intensity (ln)” value is 10.2.
Consider “TTTTAAATCTTATATTCCCCACATAAATAGCTCTCT [GTGCAC_negctrl_site665]”, for which the “gcPBM binding intensity (ln)” value was determined as 8.98.
Take “TTATATATTAATAGTAGTACTATATTGAATCACCCC [XGTACX_site2868]”: the “gcPBM binding intensity (ln)” value is 9.47.
As to “AGTTTATAGTGATATTGTACATATATATATATATAT [XGTACX_site572]”, the “gcPBM binding intensity (ln)” value was found to be 9.38.
Turning to “AAAATTTATATAAGCACACAAATATATATTTATATC [CACACA_site3291]”, the “gcPBM binding intensity (ln)” value is 9.45.
On to “TTATTTTTGTTTTGAAGTACAAAAAAATATATTCTT [XGTACX_site6416]”, for which the “gcPBM binding intensity (ln)” value is 8.92.
On to “TATTTATACTCAACTTTCTGTTATTCCAACTTTTTT [XGTACX_negctrl_site410]”, for which the “gcPBM binding intensity (ln)” value is 9.4.
The value for “ATATACAAATATATATATATATATATATATATATAT [CACACA_negctrl_site886]” was 9.07.
For the sequence “GCAAATATGTTGATATGTACATATATATATATATAT [XGTACX_site445]”, the “gcPBM binding intensity (ln)” value is 9.28.
For the sequence “TATTTCTTTATTGGCACACATTTTTTCAATTATATA [CACACA_site4975]”, the “gcPBM binding intensity (ln)” value worked out at 9.62.
Take “ATTATTTTAATAAAACGTACAAAATATAAATCAAAA [XGTACX_site3770]”: the “gcPBM binding intensity (ln)” value was determined as 9.26.
For “AAAAAATATACATATACACACATATGTATATATAAT [CACACA_site8676]”, the “gcPBM binding intensity (ln)” value was found to be 9.5.
Turning to “AATAACAAAATATTAACACACATAACATATTATAAA [CACACA_site2803]”, the “gcPBM binding intensity (ln)” value turned out to be 9.8.
Consider “TTTTTTCATATAAATACATGCACACAAAAATATCAA [TGCATGCA_site602]”, for which the “gcPBM binding intensity (ln)” value amounted to 9.26.
As to “TAATGTTTTTTTTGTTTACCAAAAATAATACATTAT [CACACA_negctrl_site203]”, the “gcPBM binding intensity (ln)” value came to 8.99.
The figure for “ATATATATATATGTGTGTACATATATGTGGATGGAT [XGTACX_site6240]” is 9.83; for “TTATAGGATCAAGCGCGTACATATCTTTATAAAAGA [XGTACX_site5775]” it is 8.97; for “GTCATATATTATAATAGTACATAAATAATTGATGCC [XGTACX_site3567]” it is 9.3.
The figure for “TTTTTCTATATTTTCTTTTATAAAATATATAATTTT [GTGCAC_negctrl_site345]” is 9.1; for “CACAGAAATAGAGATACACACACACCGATATTTATG [CACACA_site9313]” it is 9.92.
“ATAGTTATTTTATAGCGTACACAATAAATATATAAA [XGTACX_site4445]”: the “gcPBM binding intensity (ln)” value worked out at 9.26.
The value for “ATGTATTTATTATTTAGTACACATTATTTTCTTATA [XGTACX_site6365]” was 9.56; that for “TAAACAGTATGCAACGCATGCGTTGTTATATATAAA [TGCATGCA_site232]” was 9.19; that for “AAATTTTCTTTTAAGTGTACGAAATTTAGTATTTCA [XGTACX_site7819]” was 9.02.
“ATTTTTTTTTTTTTTTTTTTATTCTTAATTCATATA [CACACA_negctrl_site342]”: the “gcPBM binding intensity (ln)” value was determined as 9.35.
Consider “TATATATAAATATATACACACATGAAAATAAATAAA [CACACA_site2514]”, for which the “gcPBM binding intensity (ln)” value turned out to be 9.51.
For the sequence “TTTTTGTTTGTTCACGACTACATTATGTCATAAATG [CACACA_negctrl_site597]”, the “gcPBM binding intensity (ln)” value worked out at 9.15.
The value for “AGTAGATATAATTATAGTACTTTGATGTTTTCTTTA [XGTACX_site5038]” was 9.44; that for “TTTTTTTTTAGAAAAACATGCATGTCCTAAAAATAA [TGCATGCA_site684]” was 8.68.
Turning to “ATATGATAAATTATATGTACTTAAAATATATTATAA [XGTACX_site5904]”, the “gcPBM binding intensity (ln)” value worked out at 9.05.
As to “TGGCAAAATAGGCACACACACATATACATCTATATT [CACACA_site6626]”, the “gcPBM binding intensity (ln)” value turned out to be 9.97.
For the sequence “AAAAAAAAAAAAAAAAAAAAAAAAACAATGAATTTA [GTGCAC_negctrl_site698]”, the “gcPBM binding intensity (ln)” value was 9.23.
Take “GTAAATTATATAACAAATAAAAATGTACATATATAT [CACACA_negctrl_site408]”: the “gcPBM binding intensity (ln)” value was determined as 9.39.
On to “TCTTGTTATTTAAATGCATGTTGATTTTAAAAAATT [TGCATGCA_site840]”, for which the “gcPBM binding intensity (ln)” value turned out to be 9.19.
“AATAAAAAGTAATAATAACGTATAATTTATTATACT [TGCATGCA_negctrl_site414]”: the “gcPBM binding intensity (ln)” value came to 9.14.
The value for “TATACTTTATATATTTTGTATATATATTTTTTTTAT [TGCATGCA_negctrl_site530]” was 9.34.
On to “ATATATATAGATTGTACACACATTTATGCATATATA [CACACA_site3222]”, for which the “gcPBM binding intensity (ln)” value stood at 9.57.
The value for ACGCAATATTAACAAGTGCATTATAACACATAACAT was 9.29; that for “ATAACATTCTATGTTGCACACAAAGAGAAAAATTTA [CACACA_site9322]” was 9.28; that for “AGCATTTTAAAAGAAAAAAAAAAAAAAAAAAAAATA [GTGCAC_negctrl_site723]” was 8.96.
As to “ATCTATGTTCCTTTTACACACATAATCTTTTTTTTA [CACACA_site5468]”, the “gcPBM binding intensity (ln)” value came to 9.89.
In the case of “ATATATATATATTATACACACAAAAATATTTTGTAT [CACACA_site266]”, the “gcPBM binding intensity (ln)” value came out at 9.43.
The figure for “CGTGGGAGCAGACACACACACACACGCATATTTATA [CACACA_site6290]” is 10.1.
As to “ATGGACAAAAAATATATACACACGAGGAAACCAACA [CACACA_site3726]”, the “gcPBM binding intensity (ln)” value was found to be 10.1.
With “TTTTGTTTTTACGAATACTTTTTTAATTTTATTTAT [TGCATGCA_negctrl_site395]”, the “gcPBM binding intensity (ln)” value came to 9.05.
The value for “CATGCATACTACATCTGTACACATACATTATATTTA [XGTACX_site2495]” was 9.56; that for “TTAGTCGAATGATGTACACACATACAAAACATTTAT [CACACA_site6076]” was 9.53; that for “ACTAATTACTATAAAACACACATATATATATATATA [CACACA_site2591]” was 9.36.
“AGAAAATATTTTGGTTGTACAGGCGATTTATATGTT [XGTACX_site7253]”: the “gcPBM binding intensity (ln)” value was 9.42.
The figure for “AAAAAAAAAAAAAAAAAAAAAAAAAAAAGAAAAAAG [GTGCAC_negctrl_site583]” is 9; for “AAAAATTCTTGGCGCACACACTTTAAAAATTAAAAA [CACACA_site4498]” it is 9.37.
On to “TTATATTTTCAGAATAGTACACATATATACATATAT [XGTACX_site2519]”, for which the “gcPBM binding intensity (ln)” value was 9.19.
The figure for “GATCATTTAAAATAAGTAATATTTTTTTTACTTTTG [TGCATGCA_negctrl_site602]” is 8.98.
For “TTATAAAAGAAAAAAAAAAAAAAAAAAAAAAAAAAA [CACACA_negctrl_site1006]”, the “gcPBM binding intensity (ln)” value is 8.47.
The value for “TATATATTATATATATGTACATATTGTTGTGTATAT [XGTACX_site767]” was 9.41; that for “TTTATAATTTATATCACACATATATCTGTAATAAAT [CACACA_site5048]” was 9.13.
For “ATCTCTGTAAAGATCACACATATATTTTTGTTATAT [CACACA_site5094]”, the “gcPBM binding intensity (ln)” value was 9.36.

Values taken from the supplement of paper PMC11417369.
